Data reported in the supplement of paper PMC8728848.
The other results are listed elsewhere or left out.

Tests used:
Test in all cases: glycan array binding signal (z-score within array); higher = stronger binding
Settings in all cases: glycan notation: IUPAC condensed, linker removed
[1] = target: Gal(b1-3)[GlcNAc(b1-6)]GalNAc
Outline: (§1)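 Columns mapping to the same glycan were averaged after glycan names were converted to IUPAC-condensed notation. The data come from 3228 arrays in the Consortium for Functional Glycomics database, limited to those with an available protein sequence. Binding is reported as a within-array Z-score averaged across arrays of one protein sequence and across linkers.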

[2] = target: Gal(b1-3)[Neu5Ac(a2-6)]GalNAc
Outline: as §1

[3] = target: Gal(b1-3)[Neu5Ac(a2-6)]GlcNAc(b1-4)Gal(b1-4)Glc
Outline: as §1

[4] = target: Gal(b1-3)[Neu5Ac(b2-6)]GalNAc
Outline: as §1

[5] = target: Gal(b1-4)GalNAc(a1-3)[Fuc(a1-2)]Gal(b1-4)GlcNAc
Outline: as §1

Gal(b1-4)Glc = target: Gal(b1-4)Glc
Outline: as §1

Gal(b1-4)Glc6S = target: Gal(b1-4)Glc6S
Outline: as §1

Gal(b1-4)GlcNAc = target: Gal(b1-4)GlcNAc
Outline: as §1

[6] = target: Gal(b1-4)GlcNAc(b1-3)Gal(b1-4)Glc
Outline: as §1

[7] = target: Gal(b1-4)GlcNAc(b1-3)Gal(b1-4)GlcNAc
Outline: as §1

[8] = target: Gal(b1-4)GlcNAc(b1-3)Gal(b1-4)GlcNAc(b1-3)Gal(b1-4)GlcNAc
Outline: as §1

[9] = target: Gal(b1-4)GlcNAc(b1-3)Gal(b1-4)[Fuc(a1-3)]GlcNAc(b1-3)Gal(b1-4)[Fuc(a1-3)]GlcNAc
Outline: as §1

[10] = target: Gal(b1-4)GlcNAc(b1-3)GalNAc
Outline: as §1

[11] = target: Gal(b1-4)GlcNAc(b1-3)[Gal(b1-4)GlcNAc(b1-6)]GalNAc
Outline: as §1

[12] = target: Gal(b1-4)GlcNAc(b1-6)GalNAc
Outline: as §1

[13] = target: Gal(b1-4)GlcNAc(b1-6)[Gal(b1-3)]GalNAc
Outline: as §1

Gal3S(b1-3)GalNAc = target: Gal3S(b1-3)GalNAc
Outline: as §1

Gal3S(b1-3)GlcNAc = target: Gal3S(b1-3)GlcNAc
Outline: as §1

[14] = target: Gal3S(b1-3)[Fuc(a1-4)]GlcNAc
Outline: as §1

Gal3S(b1-4)Glc = target: Gal3S(b1-4)Glc
Outline: as §1

Gal3S(b1-4)Glc6S = target: Gal3S(b1-4)Glc6S
Outline: as §1

Gal3S(b1-4)GlcNAc = target: Gal3S(b1-4)GlcNAc
Outline: as §1

Gal4S(b1-4)GlcNAc = target: Gal4S(b1-4)GlcNAc
Outline: as §1

Gal6S(b1-4)Glc = target: Gal6S(b1-4)Glc
Outline: as §1

Gal6S(b1-4)Glc6S = target: Gal6S(b1-4)Glc6S
Outline: as §1

GalNAc(a1-3)Gal = target: GalNAc(a1-3)Gal
Outline: as §1

GalNAc(a1-3)GalNAc = target: GalNAc(a1-3)GalNAc
Outline: as §1

GalNAc(b1-3)GalNAc = target: GalNAc(b1-3)GalNAc
Outline: as §1

GalNAc(b1-4)GlcNAc = target: GalNAc(b1-4)GlcNAc
Outline: as §1

Glc(a1-4)Glc = target: Glc(a1-4)Glc
Outline: as §1

Glc(b1-4)Glc = target: Glc(b1-4)Glc
Outline: as §1

Glc(b1-6)Glc = target: Glc(b1-6)Glc
Outline: as §1

[15] = target: GlcNAc(b1-2)Gal(b1-3)GalNAc
Outline: as §1

GlcNAc(b1-3)Gal = target: GlcNAc(b1-3)Gal
Outline: as §1

[16] = target: GlcNAc(b1-3)Gal(b1-3)GalNAc
Outline: as §1

GlcNAc(b1-3)Gal(b1-4)Glc = target: GlcNAc(b1-3)Gal(b1-4)Glc
Outline: as §1

[17] = target: GlcNAc(b1-3)Gal(b1-4)GlcNAc
Outline: as §1

[18] = target: GlcNAc(b1-3)[GlcNAc(b1-6)]GalNAc
Outline: as §1

[19] = target: GlcNAc(b1-3)[GlcNAc(b1-6)]GlcNAc(b1-4)GlcNAc
Outline: as §1

[20] = target: GlcNAc(b1-4)GlcNAc(b1-4)GlcNAc
Outline: as §1

[21] = target: GlcNAc(b1-4)[GlcNAc(b1-6)]GalNAc
Outline: as §1

GlcNAc(b1-6)GalNAc = target: GlcNAc(b1-6)GalNAc
Outline: as §1

Kdn(a2-3)Gal(b1-3)GlcNAc = target: Kdn(a2-3)Gal(b1-3)GlcNAc
Outline: as §1

Kdn(a2-3)Gal(b1-4)GlcNAc = target: Kdn(a2-3)Gal(b1-4)GlcNAc
Outline: as §1

[22] = target: Man(a1-2)Man(a1-2)Man(a1-3)Man
Outline: as §1

B1: CGL3 (Coprinopsis cinerea) (protein)
chain: MGHHHHHHHHSGFHILRLESTVDLSEPLKDNGIIVFQSDKLDLEPSPNLGPTGIDNTNVNLINAKGDVLLHIGIRRRENAFVFNSIPYGESRGPEERIPLEGTFGDRRDPSITVFDHPDRYQIMIDYKTVYYYKKRLEGRCEKVSYKINEGQTPPFSDVLGVTVLYFANVMPRAN
glycan array binding signal (z-score) [1]: -0.181
glycan array binding signal (z-score) [2]: -0.206
glycan array binding signal (z-score) [3]: -0.124
glycan array binding signal (z-score) [4]: -0.191
glycan array binding signal (z-score) [5]: -0.214
glycan array binding signal (z-score) (Gal(b1-4)Glc): -0.06
glycan array binding signal (z-score) (Gal(b1-4)Glc6S): -0.131
glycan array binding signal (z-score) (Gal(b1-4)GlcNAc): -0.194
glycan array binding signal (z-score) [6]: 1.43
glycan array binding signal (z-score) [7]: -0.214
glycan array binding signal (z-score) [8]: -0.21
glycan array binding signal (z-score) [9]: -0.188
glycan array binding signal (z-score) [10]: -0.201
glycan array binding signal (z-score) [11]: -0.202
glycan array binding signal (z-score) [12]: -0.182
glycan array binding signal (z-score) [13]: -0.193
glycan array binding signal (z-score) (Gal3S(b1-3)GalNAc): -0.186
glycan array binding signal (z-score) (Gal3S(b1-3)GlcNAc): -0.18
glycan array binding signal (z-score) [14]: -0.178
glycan array binding signal (z-score) (Gal3S(b1-4)Glc): 0.022
glycan array binding signal (z-score) (Gal3S(b1-4)Glc6S): 0.238
glycan array binding signal (z-score) (Gal3S(b1-4)GlcNAc): 0.665
glycan array binding signal (z-score) (Gal4S(b1-4)GlcNAc): -0.214
glycan array binding signal (z-score) (Gal6S(b1-4)Glc): -0.163
glycan array binding signal (z-score) (Gal6S(b1-4)Glc6S): -0.16
glycan array binding signal (z-score) (GalNAc(a1-3)Gal): -0.191
glycan array binding signal (z-score) (GalNAc(a1-3)GalNAc): -0.202
glycan array binding signal (z-score) (GalNAc(b1-3)GalNAc): -0.183
glycan array binding signal (z-score) (GalNAc(b1-4)GlcNAc): 6.64
glycan array binding signal (z-score) (Glc(a1-4)Glc): 0.005
glycan array binding signal (z-score) (Glc(b1-4)Glc): -0.166
glycan array binding signal (z-score) (Glc(b1-6)Glc): -0.071
glycan array binding signal (z-score) [15]: -0.197
glycan array binding signal (z-score) (GlcNAc(b1-3)Gal): -0.132
glycan array binding signal (z-score) [16]: -0.156
glycan array binding signal (z-score) (GlcNAc(b1-3)Gal(b1-4)Glc): -0.125
glycan array binding signal (z-score) [17]: -0.163
glycan array binding signal (z-score) [18]: -0.202
glycan array binding signal (z-score) [19]: -0.214
glycan array binding signal (z-score) [20]: 8.4
glycan array binding signal (z-score) [21]: -0.205
glycan array binding signal (z-score) (GlcNAc(b1-6)GalNAc): -0.187
glycan array binding signal (z-score) (Kdn(a2-3)Gal(b1-3)GlcNAc): -0.119
glycan array binding signal (z-score) (Kdn(a2-3)Gal(b1-4)GlcNAc): -0.199
glycan array binding signal (z-score) [22]: 0.088
